PMC4336329 (PLoS ONE, 2015)
In all, about 310,000 compounds went through this assay and about 14,000 (4.5%) showed an effect of 50% or more. The effect is printed as a negative number. The list shows a part of the results.

What follows are molecules tested against human ether-à-go-go-related gene (hERG) potassium channel (human, UniProt Q12809) (assay: primary screen, population patch clamp on CHO cells stably expressing hERG).
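Further: peak tail current of the secondary pulse compared with the same well before compound.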

human ether-à-go-go-related gene (hERG) potassium channel, sequence (Q12809 whole entry, looked up): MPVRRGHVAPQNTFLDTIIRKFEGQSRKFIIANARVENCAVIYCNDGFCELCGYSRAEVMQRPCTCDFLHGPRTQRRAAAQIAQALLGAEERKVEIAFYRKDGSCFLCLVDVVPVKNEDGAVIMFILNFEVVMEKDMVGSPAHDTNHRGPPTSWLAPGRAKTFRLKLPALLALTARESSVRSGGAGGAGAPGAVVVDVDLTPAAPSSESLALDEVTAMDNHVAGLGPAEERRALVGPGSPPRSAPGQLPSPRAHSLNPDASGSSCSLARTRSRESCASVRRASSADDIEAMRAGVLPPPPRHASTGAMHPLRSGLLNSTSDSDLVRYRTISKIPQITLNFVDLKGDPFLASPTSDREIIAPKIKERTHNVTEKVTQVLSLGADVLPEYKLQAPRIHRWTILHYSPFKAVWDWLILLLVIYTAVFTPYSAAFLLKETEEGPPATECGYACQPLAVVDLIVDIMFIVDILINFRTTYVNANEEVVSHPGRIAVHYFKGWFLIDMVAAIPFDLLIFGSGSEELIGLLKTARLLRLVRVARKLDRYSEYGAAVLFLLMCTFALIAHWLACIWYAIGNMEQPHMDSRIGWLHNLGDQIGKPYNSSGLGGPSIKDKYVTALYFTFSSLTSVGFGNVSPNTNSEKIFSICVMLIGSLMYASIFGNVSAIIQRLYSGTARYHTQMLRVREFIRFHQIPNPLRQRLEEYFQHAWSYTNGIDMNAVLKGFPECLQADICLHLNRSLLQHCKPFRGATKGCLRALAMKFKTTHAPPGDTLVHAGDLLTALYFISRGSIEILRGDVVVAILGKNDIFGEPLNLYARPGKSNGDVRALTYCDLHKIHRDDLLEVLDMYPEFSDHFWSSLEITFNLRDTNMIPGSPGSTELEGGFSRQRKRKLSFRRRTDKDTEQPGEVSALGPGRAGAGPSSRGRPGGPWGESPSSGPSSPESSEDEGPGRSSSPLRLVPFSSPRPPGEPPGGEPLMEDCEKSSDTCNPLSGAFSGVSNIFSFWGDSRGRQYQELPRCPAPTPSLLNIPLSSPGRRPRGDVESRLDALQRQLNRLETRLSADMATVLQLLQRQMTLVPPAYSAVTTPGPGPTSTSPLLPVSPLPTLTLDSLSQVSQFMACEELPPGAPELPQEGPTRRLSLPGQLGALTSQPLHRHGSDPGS

SMILES | hERG current change (%, negative = inhibition) at 10uM [%]
CCS(=O)(=O)NCCc1cc2ccc(C)cc2[nH]c1=O | -21.5
NC(=O)OCC(O)COc1ccc(Cl)cc1 (stereo not drawn) | 9.97
O=P(O)(O)CP(=O)(O)O | -1.68
COc1ccc2c(C)c(C(=O)NCC(C)O)oc2c1OC (stereo not drawn) | 11.6
Fc1cc(F)cc(-c2oncc2-c2nnnn2-c2ccccc2)c1 | 12
CCCC1(c2ccccc2)NC(=O)N(CC(=O)Nc2cc(C)ccc2OC)C1=O (stereo not drawn) | -0.981
C=CCn1c(SC(CCO)C(=O)NCc2ccco2)nc2sc3c(c2c1=O)CCC3 (stereo not drawn) | -23.3
CCOc1ccc(CCNC(=O)Cn2nc(C)c3c(C)n(-c4ccccc4)nc3c2=O)cc1OCC | 4.66
Nn1c(Cc2cccc3ccccc23)nnc1SCC(=O)NCC1CCCO1 (stereo not drawn) | -12.9
CCOC(=O)NN=C1CCC(c2ccccc2)CC1 (stereo not drawn) | 10.9
COc1ccc(/C=C/C(=O)NCCOc2ccc(C)cc2)cc1 | 6.3
CCOc1cccc(C(=O)NC(=S)Nc2cccnc2)c1 | -14.5
NS(=O)(=O)c1cccc(NC(=O)c2cccnc2Oc2ccccc2)c1 | 12.7
CC(C)(C)c1ccc(C2SCC(=O)N2c2cccc(C(=O)O)c2)cc1 (stereo not drawn) | 16.8
O=c1[nH]c(-c2ccc(Cl)cc2)cs1 | 9.25
CN(C(=O)CSc1nnc(COc2ccccc2F)n1N)C1CCS(=O)(=O)C1 (stereo not drawn) | 15.2
CCc1nc(OCc2ccco2)c2sc3nc4c(cc3c2n1)COC(C)(C)C4 | -13.6
CS(=O)(=O)c1ccc(C(=O)NNC(=O)c2ccccc2-n2cccc2)cc1 | 10.1
CCOC(=O)C1CCCN(C(=O)c2ccc(S(=O)(=O)N3CCCC3)cc2)C1 (stereo not drawn) | 12.9
O=C1c2cccc3cccc(c23)C(=O)N1CC1CCN(S(=O)(=O)c2ccc(F)cc2)CC1 | 2.54
Cc1c(N=C2Nc3cccc4cccc2c34)c(=O)n(-c2ccccc2)n1C | 10.9
CCOC(=O)CSc1nnc(CNC(=O)c2cc(OC)c(OC)c(OC)c2)n1C | -3.68
Cc1ccc2nc(SCC(=O)Nc3ccccc3F)nc(=O)n2c1 | -19

SMILES | hERG current change (%, negative = inhibition) at 10uM [%]
Cc1cccc(OCC(O)Cn2c(NCCCOC(C)C)nc3c2c(=O)[nH]c(=O)n3C)c1 (stereo not drawn) | 13.6
CCOc1cc(C(=S)N2CCOCC2)cc(Br)c1OS(=O)(=O)c1ccccc1 | 9.78
Cc1ccc(NC(=O)CCn2nnc3ccccc32)cc1 | 10
Cc1ccc(C)c(NS(=O)(=O)c2cc(C(=O)Nc3ccccc3-c3ccccc3)ccc2C)c1 | 18.2
Cc1c(NC(=O)COc2cccc3c2OC(C)(C)C3)c(=O)n(-c2ccccc2)n1C | 8.77
CCNC(=S)N/N=C(\C)c1cc2ccccc2o1 | 0.843
Cc1ccc(-n2nnnc2Sc2nc([N+](=O)[O-])nn2C)cc1 | -17.9
CCOC(=O)C1CCCN(C(=O)C(C)(C)Oc2ccc(Cl)cc2)C1 (stereo not drawn) | -3.08
O=C(CSc1nnc(CNC(=O)c2cccs2)o1)Nc1ccc(F)cc1F | 6.27
Cc1cccc(-c2cc3nc(-c4ccccc4)cc(N4CCC5(CC4)OCCO5)n3n2)c1 | 2.7
Cc1ccc(C(=O)NNC(=O)c2ccc(C)cc2)cc1 | 3.96
CC(C)c1ccc(NC(=O)NC2CCN(CC(=O)Nc3cccc4ccccc34)CC2)cc1 | -22.3
CCOc1ccc(CNC(=O)c2ccc3nc(N4CCOCC4)sc3c2)cc1 | 10.7
CCC(C)(C)C1CCC2(CC1)NC(=O)N(CC(=O)N1CCN(S(=O)(=O)c3cc(C)ccc3C)CC1)C2=O (stereo not drawn) | 13.2
O=C(CSC(=S)N1CCOCC1)Nc1nc(=O)c2ccccc2s1 | 14.3
CCSc1nnnn1-c1ccccc1 | 6.83
O=c1[nH]c(=O)n(C2CCCCCC2)c(O)c1C=NCC1CCCO1 (stereo not drawn) | 4.16
COc1ccc2c(C)c(Cl)c(=O)oc2c1 | -7.56
O=C(O)c1ccc([N+](=O)[O-])c(CS(=O)(=O)c2ccccc2)c1 | 19.5
COc1cccc(N2CCN(C3CCCC(C)C3)CC2)c1 (stereo not drawn) | -23.8
O=[N+]([O-])c1ccc(-c2ccc(S(=O)(=O)N3CCOCC3)cc2)cc1 | -29.8
CC1CCCCC12NC(=O)N(CC(=O)Nc1sccc1C(N)=O)C2=O (stereo not drawn) | 1.18
O=C(NCCc1ccccc1)C1CCC(=O)N1C1CCCC1 (stereo not drawn) | 13.8

SMILES | hERG current change (%, negative = inhibition) at 10uM [%]
CCN(CC)S(=O)(=O)c1ccc2c(c1)N(CC(=O)N1CCCC1)C(=O)CO2 | -5.64
O=S(=O)([O-])c1ccc(N2N=C(c3ccccc3)CC2c2ccccc2)cc1.[Na+] (stereo not drawn) | 7.75
O=C(Oc1cccc2ccccc12)c1cc(Cl)nc2ccccc12 | -5.31
COc1cc(O)c(NC(C)=O)c2nonc12 | 11.2
COc1ccc2cc(-c3ccccc3)ncc2c1 | 5.65
CC(Oc1ccc(-c2ccccc2)cc1)C(=O)N/N=C/c1cccnc1 (stereo not drawn) | -13.1
COC(=O)N/N=C/c1ccc(OC(=O)/C=C/c2ccco2)cc1 | -1.51
COc1cc(CNCCCN2CCOCC2)c(Br)cc1OCC(=O)Nc1ccccc1C | -15.3
CCCCN(CCCC)CC(O)Cn1c2ccccc2c(=O)c2ccccc21 (stereo not drawn) | -68
Cc1nnc(CN(C)C(=O)c2cc(COc3ccc(C)c(C)c3)on2)o1 | 6.24
CCCCNC(=O)C1CCCN1C(=O)NC1CCCCC1 (stereo not drawn) | 17
C=C1C2(C(=O)Nc3ccc(SC(F)F)cc3)CCC(C2)C1(C)C (stereo not drawn) | -2.78
Cc1ccc(N2C(=O)[C@@H]3Cc4ccccc4CN3C2=O)cc1 | -3.34
COc1cccc(NC(=O)Nc2nnc(CC(=O)NCc3ccccc3)s2)c1 | -10.4
O=C1C2(c3ccccc3)CN3CN(C2)CC1(c1ccccc1)C3 | -4.78
CC1Cc2cc(/C(O)=C3\C(=O)C(=O)N(Cc4cccnc4)C3c3ccccc3F)ccc2O1 (stereo not drawn) | 13.1
CN(C(=O)CN1CC=C(c2ccccc2)CC1)c1c(N)n(Cc2ccccc2)c(=O)[nH]c1=O | 25.8
CC(=O)Nc1c(-c2ccc(Cl)cc2)c(=O)c2ccccc2n1C | 3.49
CC(C)Nc1oc(Cc2cccc3ccccc23)nc1C#N | -24.3
Cc1ccc(N2C(=O)CS/C2=N\C(=S)Nc2ccccc2)cc1 | 16
Cc1ccc(NC(=O)CSc2nc(=O)n(CCN(C)C)c3c2CCCC3)cc1Cl | -59.8
Cn1nccc1-c1cc(Cl)cc(Cl)c1O | 11.4
O=C(CCCNS(=O)(=O)c1cccc2nsnc12)N1CCCCC1 | 10.7

SMILES | hERG current change (%, negative = inhibition) at 10uM [%]
Cc1ccc(-c2ccc(C(=O)Nc3ccccc3)o2)c2ccccc12 | 10.5
Cc1ccc(C(O)c2nc3ccccc3n2C(C)C)cc1 (stereo not drawn) | 3.73
Cc1cc(=O)n2[nH]c(-c3ccccc3)cc2n1 | 9.91
C=CCn1c(CC(=O)Nc2ccc(C)cc2C)nnc1SCC(=O)N1CCOCC1 | 9.47
CCOCCCn1c(=S)[nH]c2cc(C(=O)NC3CCCC(C)C3C)ccc2c1=O (stereo not drawn) | 8.42
O=C(c1ccccc1)C(C(=O)N1CCc2ccccc2C1)n1ccccc1=O (stereo not drawn) | -14.5
COc1ccc(CCNCCN2CCOCC2)cc1.Cl | 20.7
Cc1ccc(-c2cc(C(=O)Nc3c(C#N)cnn3C)no2)cc1 | -9.27
COc1ccc(S(=O)(=O)N2CCCCCC2)cc1C(=O)OCc1c(C)noc1C | -28.2
O=c1[nH]cnc2cc(-c3ccccc3)sc12 | -8.55
COc1ccc2c(/C=C/c3cc[n+](C)cc3)c[nH]c2c1.[I-] | 11.1
COc1ccccc1N1CCN(C(=O)CCNS(=O)(=O)c2ccc3c(c2)CCC(=O)N3)CC1 | 2.7
COc1ccccc1C(C)NC(=O)c1ccc(NC(=O)CC2SC(N3CCCC3)=NC2=O)cc1 (stereo not drawn) | 13.1
O=C1CC2(CCN(C(=O)COc3ccc(F)cc3)CC2)Oc2ccccc21 | -42.6
COc1ccc(OCC(=O)Nc2ccc3c(c2)OCO3)cc1 | -0.489
Cc1ccc([N+](=O)[O-])cc1NC(=O)Nc1ccc(S(N)(=O)=O)cc1 | 17.6
COc1ccccc1-n1c(=O)[nH]c2c(C(N)=O)nc(-c3cccnc3)nc21 | 6.19
C=CCNC(=S)NNC(=O)c1ccc(Br)o1 | 9.05
CC(C)c1ccc(CCNC(=O)CCNS(=O)(=O)c2ccc(Br)cc2)cc1 | 13
COc1ccc(NC(=O)NCCN2CCN(c3ccc(C)cc3)CC2)c(Cl)c1 | -8.96
Cc1cc(C)n(-c2nc3c(c(=O)[nH]c(=O)n3C)n2CC(O)COc2ccc(Cl)cc2Cl)n1 (stereo not drawn) | -3.56
